# Experimental data: PubChem BioAssay AID1345083 (National Center for Advancing Translational Sciences (NCATS), 2018)
# The campaign covered roughly 94,000 compounds. About 6,200 (6.6%) were called active. The shares of active, inactive and inconclusive entries below differ from those in the screen. Calls follow the shape of the dose curve; as a rule, active = well fitted inhibition curve with a large enough effect; inconclusive = small, poorly fitted or top-dose-only effect; inactive = flat fitted curve, though single readings scatter. Potencies beside an inconclusive call are fits to weak or partial responses and may not hold up.
# Assay: Cytotoxic Profiling in HEK 293 Cell Line of Diverse Libraries Using Quantitative High-Throughput Screening; also: nearly all actives have a fitted effect of over 60% in size
# Conditions: HEK 293 viability, ATP luminescence (CellTiter-Glo), 48-72 h; series mostly up to 115 µM
# In short: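 qHTS cytotoxicity; HEK 293, 250 cells/well; compound pinned; 48 or 72 hr, 37 degree Celsius, 5% CO2, 95% humidity; CellTiter-Glo, 10 min RT; luminescence (ATP).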
# Potency is read from the fitted curve at half-maximal effect; tags tell the direction and shape of the fitted curve.
row,SMILES,Potency
1,Cc1cc(C)c(C(=O)N2CCCC(CCc3ccccc3C)C2)c(=O)[nH]1 (stereo unspecified),"inconclusive: 39.8 µM [inhibitor, partial curve]"
2,COc1ccc2c(c1)OCC(C(=O)N(C)Cc1nccn1Cc1ccccc1)C2 (stereo unspecified),"inconclusive: 89.1 µM [inhibitor, single point]"
3,CCOc1ccc2c(n1)CCN(C(=O)c1ccc(C)s1)C2,"inconclusive: 31.6 µM [inhibitor, partial curve]"
4,Cc1oc(C2CCN(C(=O)CN(C)S(=O)(=O)c3cccs3)CC2)nc1C(=O)N1CCOCC1,inactive
5,CNC(=O)c1cc(C2CC2)nc2c1c(C1CCN([S+](=O)([O-])c3ccccc3)C1)nn2C (stereo unspecified),inactive
6,CCCc1ccc(S(=O)(=O)N2CCN(C3CCN(CCC(C)C)C3=O)CC2)cc1 (stereo unspecified),"inconclusive: 50.1 µM [inhibitor, partial curve, poor fit]"
7,COc1ccc(Nc2ccnc(N3CCC(NC(=O)c4ccccc4Cl)CC3)n2)cc1,active: 39.8 µM
8,COC1C(=O)N(c2cccc(F)c2)C12CCN(C(=O)CCc1c[nH]c3ccccc13)CC2 (stereo unspecified),"inconclusive: 89.1 µM [inhibitor, single point]"
9,Cc1ccc(S(=O)(=O)N2CCc3c(C(=O)NCC(C)C)cccc32)cc1,"inconclusive: 56.2 µM [inhibitor, partial curve, poor fit]"
10,CC1(C)[C@H](Cc2cc(CN3CCN(c4ccccc4)CC3)on2)C[C@@H]1NC(=O)NCc1ccccc1,active: 25.1 µM
11,O=C(NCc1ccccc1F)c1cc2n(n1)CC(c1ccc(Cl)cc1)OC2 (stereo unspecified),"inconclusive: 56.2 µM [inhibitor, partial curve, poor fit]"
12,CCCN(C)C(=O)Cc1ccc(N(Cc2ccc(F)cc2)C(=O)c2ccco2)cc1,"inconclusive: 50.1 µM [inhibitor, partial curve, poor fit]"
13,COc1cccc(-c2cc(C(=O)NCc3c(C)cc(C)[nH]c3=O)c3c(c2)N(C(C)C)CCO3)c1OC,active: 79.4 µM
14,C[C@@]12CO[C@H](c3ccccc3)C[C@@H]1C[C@@H](N1CCN(Cc3ccc(F)cc3)CC1)C2,"inconclusive: 56.2 µM [inhibitor, partial curve, poor fit]"
15,O=C(CSC12CC3CC(CC(C3)C1)C2)NC1CCCN(c2ncccn2)C1 (stereo unspecified),"inconclusive: 89.1 µM [inhibitor, partial curve, poor fit]"
16,CCN1C(=O)C2CC3(CCN(C(=O)c4ccc5ncccc5c4)CC3)CN2C1=O (stereo unspecified),inactive
17,C=CCN(Cc1cccc(OCC)c1)C(=O)CC1CNCCO1 (stereo unspecified),inactive
18,O=C(NCc1cccs1)c1cc2n(n1)CC(c1ccc3c(c1)OCO3)OC2 (stereo unspecified),"inconclusive: 35.5 µM [inhibitor, partial curve, poor fit]"
19,COc1ccc(Nc2cnc3ccc(-c4ccc(OC)nc4)nn23)cn1,"inconclusive: 31.6 µM [inhibitor, full curve, poor fit]"
20,O=C(c1ccsc1)N1CC2CC(C1)[C@H]1CCCC(=O)N1C2 (stereo partly specified),inactive
21,CC(C)CCN1C(=O)CC[C@]2(C(=O)N(C)Cc3ccccc3)CCCC[C@@H]12,"inconclusive: 56.2 µM [inhibitor, partial curve, poor fit]"

row,SMILES,Potency
1,O=C(Cc1ccc(F)cc1)N1CCCC(c2nn(-c3ccccc3)c(=O)[nH]2)C1 (stereo unspecified),"inconclusive: 35.5 µM [inhibitor, partial curve, poor fit]"
2,COc1ccc(CN2CCOc3ccc(C(=O)NCc4ccc(C)cc4)cc3C2)cc1OC,"inconclusive: 50.1 µM [inhibitor, partial curve, poor fit]"
3,Cc1noc2c(NCc3ccncc3)cc(-c3ccc(Cl)cc3)nc12,"inconclusive: 63.1 µM [inhibitor, full curve, poor fit]"
4,O=C1NCCCCCN(C(=O)C2CCC2)[C@@H]2C[C@@H](C(=O)N3CCc4ccccc4C3)C[C@H]12,"inconclusive: 11.2 µM [inhibitor, partial curve, poor fit]"
5,O=C(CCC1CCN(Cc2cccc3c2OCO3)CC1)NCc1cccc(C(F)(F)F)c1,"inconclusive: 50.1 µM [inhibitor, partial curve, poor fit]"
6,Cc1nn(-c2ccccc2)c2c1C(C1CC1)N(C1CCN(Cc3cccc(F)c3)CC1)C2=O (stereo unspecified),"inconclusive: 50.1 µM [inhibitor, partial curve, poor fit]"
7,COC(=O)c1ccc(CO[C@H]2CCC=C3C[C@@H](O)CC[C@@]32C)cc1,"inconclusive: 79.4 µM [inhibitor, single point]"
8,CC(=O)N1CCCN(C(=O)C2CCCCN2Cc2ccc(-c3ccsc3)cc2)CC1 (stereo unspecified),inactive
9,Cc1ccc(C#N)c(N2CCCC(c3nnc(Cn4cccn4)n3C)C2)n1 (stereo unspecified),"inconclusive: 35.5 µM [inhibitor, full curve]"
10,Cc1ccc(NC(=O)c2ccc(CN3C(=O)NC4(CCOCC4)C3=O)cc2)cc1,"inconclusive: 79.4 µM [inhibitor, partial curve, poor fit]"
11,O=C(NCc1ccccc1Cl)C1CCc2nnc(-c3cccc(C(F)(F)F)c3)n21 (stereo unspecified),inactive
12,Cc1ccccc1C(=O)N1C(C(=O)NCC(C)C)COC12CCN(C(=O)c1cccc(Cl)c1)CC2 (stereo unspecified),"inconclusive: 50.1 µM [inhibitor, partial curve]"
13,CC(C)CN1C(=O)c2cccn2CC1CNC(=O)c1cccc(F)c1 (stereo unspecified),"inconclusive: 100 µM [inhibitor, single point]"
14,O=C(CCc1cccnc1)N1CC[C@@H](c2ccc3ccccc3c2)[C@H](O)C1,"inconclusive: 89.1 µM [inhibitor, single point]"
15,COc1ccc(Nc2nc(-c3cccc(OC)c3)no2)cc1,"inconclusive: 7.94 µM [inhibitor, partial curve, poor fit]"
16,CCC[C@H]1CN(C(C)=O)C[C@@H]1NC(=O)c1ccc(N2CCCC2=O)cc1,inactive
17,COc1ccc(CN(C)C(=O)C2(c3ccc(OC)cc3)CCOCC2)cc1,"inconclusive: 79.4 µM [inhibitor, single point]"
18,CN1c2cc(C(=O)Nc3ccc(F)c(Cl)c3)ccc2C(=O)N2CCCCCC21 (stereo unspecified),"inconclusive: 39.8 µM [inhibitor, partial curve, poor fit]"
19,COc1ccc(Nc2ccnc(N3CCC(NC(=O)c4ccccc4OC)CC3)n2)cc1,active: 50.1 µM
20,COc1ccc(N2CC(c3noc(-c4cc(Cl)ccc4OC)n3)CC2=O)cc1 (stereo unspecified),"inconclusive: 79.4 µM [inhibitor, partial curve, poor fit]"
21,O=C1CCN(S(=O)(=O)c2ccccc2)CCCN(Cc2cccc3[nH]ccc23)CCN1,"inconclusive: 89.1 µM [inhibitor, single point]"

row,SMILES,Potency
1,COc1ccc(-c2nc3c(c(-c4ccccc4)n2)CN(C(=O)c2ccccc2F)CC3)cc1,"inconclusive: 35.5 µM [inhibitor, full curve, poor fit]"
2,O=C(CCC1CCCN(Cc2nc3c(s2)CCCC3)C1)Nc1ccccc1F (stereo unspecified),"inconclusive: 50.1 µM [inhibitor, partial curve, poor fit]"
3,Cc1nc2cccnc2n1CC1CCCN(C(=O)Nc2ccccc2Cl)C1 (stereo unspecified),inactive
4,O=C(Nc1cccc(F)c1)C1CN(C2CCCC2)C(=O)N1 (stereo unspecified),inactive
5,O=C(O)c1ccc(CN2CC(COc3ccccc3)C3(C2)CN(c2ccccc2)C3)cc1 (stereo unspecified),"inconclusive: 112 µM [inhibitor, partial curve, poor fit]"
6,COc1ccc(C(C)NC(=O)COc2ccc(NC(C)=O)cn2)cc1OC (stereo unspecified),"inconclusive: 89.1 µM [inhibitor, single point]"
7,O=C(C1NCCc2[nH]cnc21)N1CCc2nnc(-c3ccccc3)n2CC1 (stereo unspecified),inactive
8,COCCNC(=O)[C@H]1C[C@H](Oc2ccccc2)CN1C(=O)NCc1ccc(OC)cc1,inactive
9,Cc1c(CN2CCC(O)(c3ccccc3)[C@H](N3CCCC3)C2)cnn1C (stereo partly specified),"inconclusive: 44.7 µM [inhibitor, partial curve, poor fit]"
10,O=C1CC(c2ccccc2)N(C(=O)CNC(=O)c2[nH]nc3c2CCc2ccccc2-3)CCCCCCN1 (stereo unspecified),"inconclusive: 25.1 µM [inhibitor, full curve, poor fit]"
11,Cc1nccn1-c1ccccc1CNC(=O)[C@H]1CC[C@@H](N)C1,inactive
12,O=C(NC1CCCC1)N1CCC(Oc2ccc(-c3noc(C4CC4)n3)cc2)C1 (stereo unspecified),"inconclusive: 50.1 µM [inhibitor, partial curve, poor fit]"
13,CCN(CCNC(=O)CCc1cc2cc(OC)ccc2[nH]c1=O)Cc1ccccc1,inactive
14,c1cn(-c2ccc(N3CCCCCC3)nc2)c(-c2cc3n(n2)CCCNC3)n1,"inconclusive: 89.1 µM [inhibitor, single point]"
15,CCCCN1C(=O)[C@@H]2C[C@@H](O)CN2C2(CN(Cc3cnc4ccccc4c3)C2)C1=O,inactive
16,COc1ccc(C(=O)N2CCC[C@H]2c2nc(-c3ccc(F)cc3)no2)c(OC)c1,"inconclusive: 44.7 µM [inhibitor, partial curve, poor fit]"
17,CC(C)Oc1cccc(-c2n[nH]c3c2CC(=O)N(CCOc2ccccc2)C3)c1,"inconclusive: 89.1 µM [inhibitor, partial curve, poor fit]"
18,Cc1ccccc1NC(=O)Cc1c[nH]c2ncc(-c3cnn(C)c3)cc12,"inconclusive: 31.6 µM [inhibitor, full curve]"
19,CC1(C(=O)NC2CCOCC2)CN(Cc2ccccc2)Cc2ccc(Nc3ccccc3)nc21 (stereo unspecified),"inconclusive: 44.7 µM [inhibitor, partial curve]"
